Results reported in ChEMBL document CHEMBL4888484, “Replenishing the malaria drug discovery pipeline: Screening and hit evaluation of the MMV Hit Generation Library 1 (HGL1) against asexual blood stage Plasmodium falciparum ,using a nano luciferase reporter read-out” (2022).
The whole screen tested about 150,000 compounds, of which about 540 (0.36%) showed an effect of 50% or more. The list shows a part of the results.

test system: Plasmodium falciparum; assay: Primary screen in NF54 nanoGlo assay, in single point, at 2uM, 72h; a lower Z score goes with more inhibition; type: functional, Erythrocyte; settings: timepoint 72 hour

Compound	% Inhibition	Z score
CCOC(=O)Nc1ccc2c(c1)N(C(=O)CN1CCCCC1)c1ccccc1C=C2	-12%	2.35
O[C@H]1CCCN(c2cccc(C(F)(F)F)n2)CC1	-3%	0.36
C[N+]1(C/C=C/C(O)(c2ccccc2)c2ccccc2)CCCCC1	12%	-1.05
CCc1cccc(NC(=O)CN2CC[S+]([O-])CC2)c1	-10%	1.26
O=C(COCC1CC1)Nc1ncc2[nH]ccc2c1Br	-3%	0.34
Cc1nc(N)sc1-c1cc([C@@H]2CC=CCC2)c(C#N)c(N)n1	3%	-0.5
Cc1cc(N)n(CC(=O)N[C@H](c2cccs2)C2CCCCC2)n1	-9%	1.08
O=C(Cn1nc(-c2ccccc2)cc(NC(=O)c2ccccc2)c1=O)Nc1ccccc1Cl	-8%	1.3
C[C@@H](CNC1(CO)CC1)c1cccc(Cl)c1	-15%	2.21
Cc1ccc(Oc2nc(N3CCC(C)CC3)nc3c2CN(C(=O)Nc2ccc(C(C)C)cc2)CC3)cc1	2%	-0.36
Cc1cc(S(=O)(=O)NC(=O)Cc2c(C)cccc2C)c(C)o1	5%	-0.46
Cc1cc(N2CC[C@H](NCCC(C)C)C2=O)n(C)n1	2%	-0.24
Cc1cc(C(=O)N(Cc2ccccn2)c2ccc(F)cc2)c2ccccc2n1	0%	-0.04
CC1(C)C[C@H](NC(=O)Cc2ccc(-n3cnnc3)cc2)CO1	-17%	1.82
Cc1ocnc1-c1noc(-c2n[nH]c(=O)c3ccccc23)n1	-12%	1.36
CC(C)C(=O)N(C)Cc1ccc(C(=O)N2CCc3[nH]ncc3C2)cc1	1%	-0.1
CN(C(=O)c1noc2c1CCCC2)c1ccccc1Cl	-1%	0.13
CC1CC(C)(C)CCC1NC(=O)NC1CCN(C)C1=O (stereo not given)	33%	-4.44
CCc1nn2c(c1-c1ccc(OC)c(S(=O)(=O)N3CCCCCC3)c1)NC(=O)CCC2=O	3%	-0.31
CNC(=O)[C@@H]1CCCN1Cc1cnns1	-3%	0.49
Cc1nccc(CNC(=O)N2CCC[C@H]2COc2ccc(F)cc2)n1	-15%	1.99
CCc1ccc(-c2cc(C(F)(F)F)on2)cc1S(=O)(=O)NCc1ccccc1OC	-1%	0.18
CCCC(=O)N(Cc1cccc(OS(=O)(=O)CC)c1)CC(C)C	-3%	0.41
Cc1noc(C(F)F)c1C(=O)NCc1cc2n(n1)CCCO2	9%	-1.01
CCOC(=O)c1sc(N)nc1CC	-2%	0.23
Cc1c(S(N)(=O)=O)sc(C(=O)N[C@@H](C)c2ccc(F)cc2OC(F)F)c1Cl	-10%	1.57
CC[C@H](Nc1nc(C)nc2c1CCNC2)c1ccc(C)cc1C	-7%	0.65
CC(C)Cc1nc(NC(=O)c2n[nH]c3c2CCC3)n[nH]1	-11%	1.47

Compound	% Inhibition	Z score
Cc1csc2c(N3CCC[C@H](N4CCCCC4)C3)ncnc12	-8%	0.83
O=C(NC[C@H]1CCCO1)c1cccc(NC(=O)c2nnc(COc3ccccc3)s2)c1	4%	-0.54
Cc1ccc(C2CCN(C(=O)[C@H]3CCn4ccnc4C3)CC2)cn1	5%	-0.92
CCN([C@H]1CCCc2cccnc21)S(=O)(=O)c1ccnn1C	-19%	2.46
Cc1cc(C)cc(N2CCC(N3C[C@H](O)[C@@H](N4CCN(C)CC4)C3)CC2)c1	-1%	0.1
CC(C)c1ccc(N2C(=O)CN(CCc3ccc(S(N)(=O)=O)cc3)[C@H]3CS(=O)(=O)C[C@H]32)cc1	-5%	0.63
COc1nn(C)cc1C(=O)N1CC(Oc2nc3c(OC)cccc3s2)C1	-21%	2.42
CC(=O)N[C@@H]1CN(C(=O)NCCc2cc(F)ccc2F)C[C@H]1c1ccnn1C	-3%	0.5
Cc1cc(C)cc(NC(=O)CC(=O)N2CCn3c(C(N)=O)cnc3C2)c1	-9%	1.19
CCOC(=O)CN1CCCC1C1CC(C)CCC1O (stereo not given)	1%	-0.09
COCCN1C[C@@H](Cc2cc(C(F)(F)F)ccn2)CC1=O	-3%	0.39
C[C@@H]1CN(C(=O)c2cc3ccccc3c(=O)[nH]2)C[C@H](C)O1	-8%	0.79
CCCCc1nnc(NCc2ccc3c(c2)CCO3)s1	-16%	2.5
Cc1nn(-c2ccc(F)cc2)cc1-c1noc(C(=O)NCCCc2ccccc2)n1	-3%	0.38
O=C([C@@H]1CCCO1)N1CCN(c2ccc3ccc(F)cc3n2)CC1	-2%	0.27
O=S(=O)(NCc1ccccc1)C1CC1	-11%	1.56
O=C(Nc1cccnc1-n1cccn1)C1C2CCCCC21 (stereo not given)	2%	-0.22
CCN1CCO[C@@H](CNCc2cscn2)C1	-14%	1.41
CCOC(=O)[C@@]1(CCc2ccccc2)CCCN(C2CCN(Cc3ccccn3)CC2)C1	-20%	2.73
Fc1cnc(N2CCCC3(C2)OCCO3)nc1	-7%	0.65
CCN(C(=O)CN1Cc2c[nH]nc2[C@@H](C)C1)c1ccccc1	7%	-1.13
Cc1noc2nc(C3CC3)cc(C(=O)Nc3ccncc3)c12	19%	-3.29
O=S(=O)(c1cccs1)N1CCC[C@H](n2ccnn2)CC1	-1%	0.1
CC(=O)N1C[C@@H](O)C[C@@H]1C(=O)NC1(Cc2ccccc2)CCCC1	1%	-0.15
COc1ccc2cc3c(nc2c1)N(C(=O)c1cccc(F)c1)CC3	-5%	0.52
CCN=C(N)NCc1ccccc1CC	1%	-0.11
O=C(NCCN(CCN1CCOCC1)C(=O)C1=CCCCO1)C1=CCCCO1	-8%	0.91
